This is one part of the list.
Tests used:
Experiment in all cases: glycan array binding signal (z-score within array); higher = stronger binding
Settings in all cases: glycan notation: IUPAC condensed, linker removed
Gal(b1-4)Glc = target: Gal(b1-4)Glc
Outline: (§1)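 Arrays were curated from the Consortium for Functional Glycomics database, 3228 in total, and kept only where the protein sequence was available. Binding is expressed as a within-array Z-score. This score was averaged across arrays of the same protein sequence at different concentrations or buffers and across linkers, and negative values can be read as non-binding.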

Gal(b1-4)Glc6S = target: Gal(b1-4)Glc6S
Outline: as §1

Gal(b1-4)GlcNAc = target: Gal(b1-4)GlcNAc
Outline: as §1

[1] = target: Gal(b1-4)GlcNAc(a1-6)Gal(b1-4)GlcNAc
Outline: as §1

Gal(b1-4)GlcNAc(b1-2)Man = target: Gal(b1-4)GlcNAc(b1-2)Man
Outline: as §1

[2] = target: Gal(b1-4)GlcNAc(b1-2)Man(a1-3)Man(b1-4)GlcNAc(b1-4)GlcNAc
Outline: as §1

[3] = target: Gal(b1-4)GlcNAc(b1-2)Man(a1-3)[Gal(b1-4)GlcNAc(b1-2)Man(a1-6)]Man(b1-4)GlcNAc(b1-4)GlcNAc
Outline: as §1

[4] = target: Gal(b1-4)GlcNAc(b1-2)Man(a1-3)[Gal(b1-4)GlcNAc(b1-2)Man(a1-6)]Man(b1-4)GlcNAc(b1-4)[Fuc(a1-6)]GlcNAc
Outline: as §1

[5] = target: Gal(b1-4)GlcNAc(b1-2)Man(a1-3)[Gal(b1-4)GlcNAc(b1-2)Man(a1-6)][Gal(b1-4)GlcNAc(b1-4)]Man(b1-4)GlcNAc(b1-4)[Fuc(a1-6)]GlcNAc
Outline: as §1

[6] = target: Gal(b1-4)GlcNAc(b1-2)Man(a1-3)[Gal(b1-4)GlcNAc(b1-2)Man(a1-6)][GlcNAc(b1-4)]Man(b1-4)GlcNAc(b1-4)[Fuc(a1-6)]GlcNAc
Outline: as §1

[7] = target: Gal(b1-4)GlcNAc(b1-2)Man(a1-3)[GlcNAc(b1-2)Man(a1-6)]Man(b1-4)GlcNAc(b1-4)GlcNAc
Outline: as §1

[8] = target: Gal(b1-4)GlcNAc(b1-2)Man(a1-3)[GlcNAc(b1-4)][Gal(b1-4)GlcNAc(b1-2)Man(a1-6)]Man(b1-4)GlcNAc(b1-4)GlcNAc
Outline: as §1

[9] = target: Gal(b1-4)GlcNAc(b1-2)Man(a1-3)[Man(a1-6)]Man(b1-4)GlcNAc(b1-4)GlcNAc
Outline: as §1

[10] = target: Gal(b1-4)GlcNAc(b1-2)Man(a1-6)Man(b1-4)GlcNAc(b1-4)GlcNAc
Outline: as §1

[11] = target: Gal(b1-4)GlcNAc(b1-2)Man(a1-6)[GlcNAc(b1-2)Man(a1-3)]Man(b1-4)GlcNAc(b1-4)GlcNAc
Outline: as §1

[12] = target: Gal(b1-4)GlcNAc(b1-2)Man(a1-6)[Man(a1-3)]Man(b1-4)GlcNAc(b1-4)GlcNAc
Outline: as §1

[13] = target: Gal(b1-4)GlcNAc(b1-2)[Gal(b1-4)GlcNAc(b1-4)]Man(a1-3)[Gal(b1-4)GlcNAc(b1-2)Man(a1-6)]Man(b1-4)GlcNAc(b1-4)GlcNAc
Outline: as §1

[14] = target: Gal(b1-4)GlcNAc(b1-2)[Gal(b1-4)GlcNAc(b1-4)]Man(a1-3)[Gal(b1-4)GlcNAc(b1-2)[Gal(b1-4)GlcNAc(b1-6)]Man(a1-6)]Man(b1-4)GlcNAc(b1-4)GlcNAc
Outline: as §1

[15] = target: Gal(b1-4)GlcNAc(b1-2)[Gal(b1-4)GlcNAc(b1-4)]Man(a1-3)[GlcNAc(b1-4)][Gal(b1-4)GlcNAc(b1-2)Man(a1-6)]Man(b1-4)GlcNAc(b1-4)GlcNAc
Outline: as §1

[16] = target: Gal(b1-4)GlcNAc(b1-2)[Gal(b1-4)GlcNAc(b1-4)]Man(a1-3)[GlcNAc(b1-4)][Gal(b1-4)GlcNAc(b1-2)[Gal(b1-4)GlcNAc(b1-6)]Man(a1-6)]Man(b1-4)GlcNAc(b1-4)GlcNAc
Outline: as §1

[17] = target: Gal(b1-4)GlcNAc(b1-2)[Gal(b1-4)GlcNAc(b1-6)]Man(a1-6)[Gal(b1-4)GlcNAc(b1-2)Man(a1-3)]Man(b1-4)GlcNAc(b1-4)GlcNAc
Outline: as §1

[18] = target: Gal(b1-4)GlcNAc(b1-2)[Gal(b1-4)GlcNAc(b1-6)]Man(a1-6)[Gal(b1-4)GlcNAc(b1-2)Man(a1-3)]Man(b1-4)GlcNAc(b1-4)[Fuc(a1-6)]GlcNAc
Outline: as §1

B1: Als3-2 (Candida albicans) (protein)
chain: KTITGVFNSFNSLTWSNAATYNYKGPGTPTWNAVLGWSLDGTSASPGDTFTLNMPCVFKFTTSQTSVDLTAHGVKYATCQFQAGEEFMTFSTLTCTVSNTLTPSIKALGTVTLPLAFNVGGTGSSVDLEDSKCFTAGTNTVTFNDGGKKISINVDFERSNVDPKGYLTD
glycan array binding signal (z-score) (Gal(b1-4)Glc): -0.62 | glycan array binding signal (z-score) (Gal(b1-4)Glc6S): -0.361 | glycan array binding signal (z-score) (Gal(b1-4)GlcNAc): -0.315 | glycan array binding signal (z-score) [1]: 0.563 | glycan array binding signal (z-score) (Gal(b1-4)GlcNAc(b1-2)Man): 0.441 | glycan array binding signal (z-score) [2]: -0.17 | glycan array binding signal (z-score) [3]: -0.319 | glycan array binding signal (z-score) [4]: -0.135 | glycan array binding signal (z-score) [5]: 0.231 | glycan array binding signal (z-score) [6]: 1.26 | glycan array binding signal (z-score) [7]: -0.106 | glycan array binding signal (z-score) [8]: 1.3 | glycan array binding signal (z-score) [9]: 0.449 | glycan array binding signal (z-score) [10]: 0.929 | glycan array binding signal (z-score) [11]: -0.3 | glycan array binding signal (z-score) [12]: -0.194 | glycan array binding signal (z-score) [13]: -0.643 | glycan array binding signal (z-score) [14]: -0.603 | glycan array binding signal (z-score) [15]: -0.22 | glycan array binding signal (z-score) [16]: -0.482 | glycan array binding signal (z-score) [17]: -0.63 | glycan array binding signal (z-score) [18]: -0.464

From the supplement of paper PMC8728848
